In PubChem BioAssay AID504832 (National Center for Advancing Translational Sciences (NCATS), 2011):
The campaign covered roughly 310,000 compounds. About 18,000 (5.8%) were called active. This list was built around the results that the source calls inconclusive (neither active nor inactive); the mix of calls is not that of the screen. The call rests on the fitted dose curve; in most records, active means well fitted inhibition curve with a large enough effect; inconclusive means small, poorly fitted or top-dose-only effect, or another doubt; inactive means no such curve, though single readings can be large or run the other way. No potency is given beside an inconclusive call; the fits are too rough.

Experiment: Primary qHTS for delayed death inhibitors of the malarial parasite plastid, 48 hour incubation
Conditions: P. falciparum luciferase growth in erythrocytes; series mostly up to 28.7 µM
Method in brief: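 Compounds are pin-transferred into medium, infected erythrocytes (2% hematocrit, 0.1% parasitemia final) are added, and plates sit one parasite generation at 37 C in 5% CO2. Detection reagent is then added and luminescence measured.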
On the % scale 0 is the no-effect control and ±100 the full control effect; potency means the concentration at half of the fitted maximal effect; tags describe the fitted curve by direction and shape.

SMILES	Potency	activity change, negative = inhibition
Cc1ccc(C)n1-c1ccc(C(=O)NN)s1	inconclusive [inhibitor, partial curve]	
O=C(NCCc1ccc(Cl)cc1)c1cc(-c2ccccn2)nc2ccccc12	inconclusive [inhibitor, single point]	
COc1c(C)cccc1C(=O)Nc1ccc(OCC(=O)N2CCOCC2)cc1C	inconclusive [inhibitor, partial curve]	
Cc1ccc(S(=O)(=O)N2CCN(C(=O)Cn3nc(C)c([N+](=O)[O-])c3C)CC2)c(C)c1	inconclusive [inhibitor, partial curve]	
NC(=O)c1cc(S(=O)(=O)Nc2cccc(Cl)c2)cs1	inactive	
O=C1CSC(c2ccc(Cl)cc2)N1C1CCCCC1 (stereo unspecified)	inconclusive [inhibitor, single point]	
COc1ccc(/C=N/NC(=O)c2ccoc2C)cc1COc1c(C)cccc1C	inconclusive [inhibitor, partial curve, poor fit]	
COc1cc([N+](=O)[O-])ccc1NC(=O)C1C2C=CC(C2)C1C(=O)O (stereo unspecified)	inconclusive [inhibitor, partial curve, poor fit]	
CCOc1ccc2oc(C(=O)N(CCOC)c3c(N)n(CC(C)C)c(=O)[nH]c3=O)c(C)c2c1	inconclusive [inhibitor, single point]	
COc1cc(/C=C/c2nc3ccccc3c(=O)[nH]2)cc(Br)c1O	inconclusive [inhibitor, partial curve]	
Brc1cnc2nc(SCc3nc4ccccc4[nH]3)[nH]c2c1	inconclusive [inhibitor, single point]	
CCC(C)(C)NC(=O)C(c1ccc(OC)cc1)N(C(=O)CCC(=O)Nc1cc(C)on1)c1ccc2c(c1)OCO2 (stereo unspecified)	inconclusive [inhibitor, partial curve]	
COc1ccc(C(CNC(=O)c2cc(S(=O)(=O)NCc3ccccc3)ccc2C)N2CCOCC2)cc1 (stereo unspecified)	inconclusive [inhibitor, partial curve]	
COc1ccc(C(O)CNc2ccc(C)cc2)cc1 (stereo unspecified)	inconclusive [inhibitor, single point]	
Cc1cc(C)c(S(=O)(=O)c2ccccc2C)c(N(C)C)n1	inconclusive [inhibitor, partial curve, poor fit]	
O=C(Nc1ccc(F)cc1)N1CCCC(c2nc3c(nnn3Cc3ccccc3Cl)c(=O)[nH]2)C1 (stereo unspecified)	inconclusive [inhibitor, partial curve]	
COc1cccc(C2C(C#N)=C(N)SC(c3ccccc3)C2[N+](=O)[O-])c1 (stereo unspecified)	active: 10.4 µM	
CC(=O)c1ccc(NC(=O)c2ccc(CNc3c(N4CCOCC4)c(=O)c3=O)cc2)cc1	inconclusive [inhibitor, single point]	
O=C(N1CCCC1)C(F)(F)Oc1ccc(F)cc1	inactive	
O=C(Cc1cccs1)Nc1ccc(F)cc1	inactive	
COc1ccc(C(F)(F)F)cc1NC(=O)c1nc2nc(C)cc(C(F)F)n2n1	active: 3.7 µM	
CCCn1c(CCC(=O)O)ccc1-c1ccc(OC)cc1	inconclusive [inhibitor, single point]	

SMILES	Potency	activity change, negative = inhibition
COc1ccc(C=C2C=C(C(C)(C)C)C(=O)C(C(C)(C)C)=C2)cc1OC	inconclusive [inhibitor, partial curve, poor fit]	
Cn1c(NC(=O)c2ccco2)c(-c2ccc(Cl)cc2)c(=O)c2ccccc21	inactive	
CCCCN1C(=O)CC(C(=O)OCC)=C1C	inconclusive [inhibitor, partial curve, poor fit]	
Cc1ccc(-c2csc(N3CCN(c4cc5c(cc4Cl)nc(-c4ccncc4)n5CCOCCO)CC3)n2)cc1	inconclusive [inhibitor, full curve]	
CCOc1ccc(-n2c(SCC(=O)Nc3nccs3)nnc2-c2ccoc2C)cc1	inconclusive [inhibitor, single point]	
O=C(NCc1ccccc1)C12CN(Cc3ccccc3)CC1C(c1ccc([N+](=O)[O-])cc1)=NO2 (stereo unspecified)	active: 11.7 µM	
CCc1nccn1CCC(=O)N1CCCC(N2CCN(c3ccccc3C)CC2)C1 (stereo unspecified)	inconclusive [inhibitor, partial curve, poor fit]	
COc1ccc(NC(=O)C2CCCN2C(=O)Oc2ccccc2)cc1 (stereo unspecified)	inconclusive [inhibitor, single point]	
CCN(CC)Cc1cc2[nH]c3c4ccc(Cl)cc4ncc3c2cc1OC	active: 0.0738 µM	
COc1cccc(/C=N/n2nnc3c(cnn3-c3ccccc3)c2=O)c1	inconclusive [inhibitor, full curve, poor fit]	
CCN1CCN(C(=O)C2CCC(=O)N(Cc3cccc(C(F)(F)F)c3)C2)CC1 (stereo unspecified)	inactive	
O=C(N/N=C\c1ccc(Cl)cc1)c1sccc1-n1cccc1	inactive	
Cc1ccc(C(=O)COc2ccc3c(C)cc(=O)oc3c2)cc1	inconclusive [inhibitor, single point]	
Cc1ccc(C)c(N2CCN(S(=O)(=O)c3ccc4c(c3)CC(C)N4C(=O)C3CC3)CC2)c1 (stereo unspecified)	inconclusive [inhibitor, partial curve]	
Cc1cc(=O)nc2c3ccccc3n(C(C)C(=O)Nc3c(F)c(F)c(F)c(F)c3F)n12 (stereo unspecified)	active: 3.29 µM	
COc1cccc(C2C(C#N)=C(N)OC3=C2C(=O)CC(c2ccco2)C3)c1OCc1ccc(F)cc1 (stereo unspecified)	active: 6.57 µM	
Cc1sc(NC(=S)NC(=O)CCc2ccccc2)c(C(N)=O)c1C	inactive	
CCCN(CCC)c1ccc(C(O)c2nnc(-c3ccccc3)o2)cc1 (stereo unspecified)	inconclusive [inhibitor, single point]	
COc1ccccc1N1CCN(C(=O)CSc2nc(C)c(Cc3ccccc3)c(=O)[nH]2)CC1	inconclusive [inhibitor, single point]	
Cc1ccccc1NC(=S)N(C)Cc1cn(C)c2ccccc12	inconclusive [inhibitor, single point]	
CCn1c(C2CC(=O)N(c3ccc(C)c(C)c3)C2)nc2ccccc21 (stereo unspecified)	inconclusive [inhibitor, single point]	
CN1CCN(CCCNC(=O)c2ccc3c(Cl)c4c(nc3c2)CCCC4)CC1	inconclusive [inhibitor, single point]	

SMILES	Potency	activity change, negative = inhibition
CCc1ccc(Nc2n[n+](-c3ccccc3)c(-c3cccc(C)c3)s2)cc1	inconclusive [inhibitor, single point]	
O=C(N/N=C/c1ccc(O)cc1)NC12CC3CC(CC(C3)C1)C2	inactive	
CCOC(=O)c1nc(C)sc1-c1ccnn1S(=O)(=O)c1ccc(Cl)cc1Cl	inactive	
CCC(c1nnnn1Cc1ccc(F)cc1)N(CCCO)Cc1cc2cc3c(cc2[nH]c1=O)OCO3 (stereo unspecified)	inactive	
O=C(CSc1nnc(NC(=O)c2ccco2)s1)Nc1ccccc1F		inactive: 31.8% [at 1.15 µM]
CC(C)(O)C#Cc1ccc(C(=O)NCCc2ccc(S(N)(=O)=O)cc2)cc1	inconclusive [inhibitor, single point]	
CC(NC(=O)CCC(=O)NC(C)C1COc2ccccc2O1)C1COc2ccccc2O1 (stereo unspecified)	inactive	
COc1ccc(/C=C2\SC(=O)N(CC(=O)Nc3ccccc3O)C2=O)cc1OC	inconclusive [inhibitor, single point]	
NC(=O)c1ccc(NC(=O)CCc2nc3sc4c(c3c(=O)[nH]2)CCCC4)cc1	inactive	
CCOC(=O)N1CCN(C(=O)COC(=O)C2CCN(S(=O)(=O)c3c(Cl)cccc3Cl)CC2)CC1	inconclusive [inhibitor, single point]	
CCCN1CCN(CCCNC(=O)C(CC)n2nc(C)c3sc4ccccc4c3c2=O)CC1 (stereo unspecified)	inconclusive [inhibitor, partial curve, poor fit]	
COC(=O)C(CSCc1ccccc1)NC(=O)CSc1nc(C)cc(=O)[nH]1 (stereo unspecified)	inconclusive [inhibitor, single point]	
O=C(Nc1ccc(Cl)cc1)[C@@H]1[C@@H]2C(=O)N(c3ccc4ccccc4c3)C(=O)[C@@H]2[C@H]2C=CC=NN21	inactive	
C=CCn1c(SCC(=O)c2c(N)n(C3CC3)c(=O)[nH]c2=O)nnc1-c1ccccc1OC	inconclusive [inhibitor, single point]	
CCC[C@H](N[C@@H](C)C(=O)N1[C@H](C(=O)O)C[C@@H]2CCCC[C@@H]21)C(=O)OCC	inactive	
NC(=O)[C@@H]1CCCN1C(=O)c1cc(COc2ccc3c(c2)CCCC3)on1	inactive	
S=C(Nc1ccccc1)N1CCn2c(nc3ccccc32)C1	inactive	
CCCC(=O)O[C@]1(C(=O)COC(C)=O)CC[C@H]2[C@@H]3C[C@H](F)C4=CC(=O)C=C[C@]4(C)[C@@]3(F)[C@@H](O)C[C@@]21C	inconclusive [inhibitor, partial curve]	
O=C1OC(COc2ccc(Br)cc2)CN1c1ccccc1 (stereo unspecified)	inactive	
COc1ccc(/C=C/C(=O)C2(O)CCCCC2)cc1OC	inconclusive [inhibitor, partial curve]	
Cc1cc(C(=O)Nc2cc(C(F)(F)F)ccc2N2CCOCC2)no1	inconclusive [inhibitor, full curve, poor fit]	
COc1ccc(S(=O)(=O)N2CCCCC2)cc1NC(=O)CCCOc1ccccc1	inconclusive [inhibitor, single point]	
